Data: PubChem BioAssay (NCI)
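Results reflect a 48-hour exposure of cells in 96-well plates to compound at five concentrations. At the GI50, growth is halved. TGI denotes the concentration required for complete inhibition of growth.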

System: NCI-H322M lung
Test: NCI anticancer screen, dose series, 48 h

Going from `CC(SC(C)C(=O)N/N=C/c1cccc(Cl)c1)C(=O)N/N=C\c1cccc(Cl)c1` (stereo not drawn) to `CC(=O)OC1Oc2ccccc2-c2oc(=O)c(-c3cc(=O)oc4cc(O)ccc34)cc21` (stereo not drawn), the GI50 rises from 16.8 µM to 28.2 µM (1.7-fold).

Compared with `O=S(=O)([O-])c1ccc2c(c1)-c1nc-2nc2[n-]c(nc3nc(nc4[n-]c(n1)c1ccc(S(=O)(=O)[O-])cc41)-c1cc(S(=O)(=O)[O-])ccc1-3)c1ccc(S(=O)(=O)[O-])cc21.[Cu+2].[Na+]`, `Ic1ccc(Nc2nc3nonc3nc2Nc2ccc(I)cc2)cc1` is lower in GI50: greater than 100 µM for the first, 0.264 µM for the second.

Compared with `COc1ncnc(C2CC2)c1-c1ncc2cnn(Cc3ccc(-c4nc(C(F)(F)F)cn4C(C)C)cc3)c2n1`, `COc1ccc2c(c1)C(C)Cc1c(Cl)ncnc1N2C` (stereo not drawn) is 39-fold lower in GI50: 19.2 µM for the first, 0.487 µM for the second.

Compared with `CC(SC(C)C(=O)N/N=C/c1cccc(Cl)c1)C(=O)N/N=C\c1cccc(Cl)c1` (stereo not drawn), `Cc1ccc(/C=N/n2c(=O)[nH]c3ccccc3c2=O)cc1` is higher in TGI: 63.3 µM for the first, greater than 100 µM for the second.

Going from `O=S(=O)([O-])c1ccc2c(c1)-c1nc-2nc2[n-]c(nc3nc(nc4[n-]c(n1)c1ccc(S(=O)(=O)[O-])cc41)-c1cc(S(=O)(=O)[O-])ccc1-3)c1ccc(S(=O)(=O)[O-])cc21.[Cu+2].[Na+]` to `CC(=O)OC1Oc2ccccc2-c2oc(=O)c(-c3cc(=O)oc4cc(O)ccc34)cc21` (stereo not drawn), the TGI falls from greater than 100 µM to 99 µM.

`COc1ncnc(C2CC2)c1-c1ncc2cnn(Cc3ccc(-c4nc(C(F)(F)F)cn4C(C)C)cc3)c2n1` and `COc1ccc2c(c1)C(C)Cc1c(Cl)ncnc1N2C` (stereo not drawn) cannot be ordered by TGI: greater than 100 µM for the first, greater than 81.4 µM for the second.

`Nc1nc(N)c2[nH]c(CNc3ccc(C(=O)O)cc3)nc2n1` and `Ic1ccc(Nc2nc3nonc3nc2Nc2ccc(I)cc2)cc1` cannot be ordered by TGI: greater than 100 µM for the first, greater than 100 µM for the second.

`CCOC(=O)C1(Cc2ccc3c(c2)CCC3)Cc2cc3c(cc2C1)CCC3` and `Clc1c(Cl)c(Cl)c2nn(C3CCCO3)nc2c1Cl` (stereo not drawn) cannot be ordered by TGI: greater than 100 µM for the first, greater than 100 µM for the second.

`O=C(O)c1n[nH]nc1Cl` and `C=C1C[C@@H]2O[C@H]3[C@H]4[C@@H](C[C@@H](C)[C@@H](OC(C)=O)[C@H]42)[C@@H](C)CO[C@@]3(C)[C@H](OC(C)=O)C[C@H]1O` cannot be ordered by TGI: greater than 100 µM for the first, greater than 100 µM for the second.
